Measured values reported in paper PMC5836133.
The other results are listed elsewhere or left out. At the low end of the ranking, values are background and their order means little.

System: T1, GST-NbGlk1(82-244)
T1 sequence: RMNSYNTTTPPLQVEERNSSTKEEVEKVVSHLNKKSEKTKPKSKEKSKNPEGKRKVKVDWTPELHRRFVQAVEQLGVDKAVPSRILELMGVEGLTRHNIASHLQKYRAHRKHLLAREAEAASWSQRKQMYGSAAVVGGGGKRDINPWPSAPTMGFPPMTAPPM
Assay: protein-binding microarray;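 further: rank-based score ranging −0.5 to +0.5 with E above 0.45 taken as significant binding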
Settings: NbGlk1 is a Golden2-like transcription factor of Nicotiana benthamiana; high values mean tight binding; most listed sequences are background and not binding sites; double strand, one strand shown

| Sequence | binding signal [E-score] |
| --- | --- |
| AACCCATT | -0.0799 |
| ACGTACGT | -0.0451 |
| ATTTCCGC | 0.333 |
| ATATACAA | 0.212 |
| AGATTAAA | 0.0248 |
| ATGAAGTG | 0.00397 |
| ATGCGTGA | -0.0807 |
| ACCCCGCT | -0.0466 |
| AAACACAA | 0.0249 |
| ATCCGGTC | 0.14 |
| ATAAGGAC | -0.124 |
| AAGTTTTC | -0.021 |
| AGCTGAAA | -0.00169 |
| ACTTAAAA | 0.14 |
| ATCTATTG | 0.223 |
| AACCTCTG | -0.185 |
| AATACAAA | 0.195 |
| AGTGGATG | -0.00283 |
| AGGGCATC | -0.221 |
| AGTGGACA | 0.0475 |
| AGACCTTG | -0.15 |
| ATGATGAC | -0.0779 |
| ACCCCATA | -0.0521 |
| AGCCCTGA | -0.185 |
| ACTAACGG | 0.131 |

| Sequence | binding signal [E-score] |
| --- | --- |
| CAGCGCCA | -0.211 |
| ACCTGAGG | -0.0697 |
| AAGGCAGA | 0.0199 |
| AAACGCGT | 0.0933 |
| CAATAACA | -0.106 |
| AGTAGTGA | 0.0266 |
| ATCGTGAA | 0.166 |
| ATCATAAC | 0.153 |
| CACGGAGG | -0.212 |
| AATGTAAG | 0.0454 |
| AGTCAACA | -0.113 |
| AATTGGTG | -0.00175 |
| ACTCTGGA | -0.104 |
| ACGGGTCA | -0.24 |
| AAATAAAT | 0.24 |
| AACGAATA | -0.0108 |
| CACGGACC | -0.234 |
| ACATGGAG | -0.0733 |
| AGGTGAGG | -0.217 |
| ATCCTGGC | 0.244 |
| AAGGTGGC | -0.282 |
| ACTATTAA | -0.0379 |
| AGCCACTG | -0.154 |
| CACTCGAA | -0.0802 |
| ACACGGCG | -0.139 |

| Sequence | binding signal [E-score] |
| --- | --- |
| CACTACAA | 0.0571 |
| ACGTTTAC | 0.057 |
| AAATGCGT | 0.0868 |
| ACTTGACT | -0.117 |
| ATAGTCGA | -0.021 |
| CAACCCAC | -0.0345 |
| AAGAATGC | -0.118 |
| ATCGAGTA | 0.117 |
| CACCGGAC | -0.206 |
| AAAAGGGG | -0.0668 |
| ACCCAGGA | -0.0808 |
| ACGTCCAG | -0.1 |
| AACGGGTA | -0.101 |
| AGAATGCG | -0.0301 |
| AGGTCTAC | -0.143 |
| AGCAATCC | 0.412 |
| AAGATTTC | 0.477 |
| CACACCCG | -0.209 |
| ACAGGGAT | 0.0718 |
| AATCCCGG | 0.326 |
| ACTGGTTA | -0.109 |
| AACATAGT | -0.101 |
| AGGGCAAG | -0.208 |
| AATTAGGG | 0.0441 |
| CAAGGAGA | 0.0857 |

| Sequence | binding signal [E-score] |
| --- | --- |
| ACCGTCGC | -0.269 |
| ATTAGACG | -0.0148 |
| AGCCGAGA | -0.0167 |
| AGACCTCC | -0.27 |
| ACTACGCG | 0.0382 |
| AGGGCATG | -0.265 |
| ACCCGTAG | -0.178 |
| ACGTCTTG | -0.149 |
| ATGAGGGA | -0.0136 |
| CAACGTTA | -0.0487 |
| AATATGCT | 0.115 |
| ATAAGTAT | 0.0941 |
| AAGCCATA | -0.133 |
| ACTTACGC | -0.0622 |
| AGTGAGTC | -0.164 |
| ACGGCATA | -0.00409 |
| ATAGGAAA | 0.192 |
| AGACCTCT | -0.138 |
| AGCCGAAA | 0.0198 |
| ACCAAACC | -0.149 |
| AACTACCG | 0.0236 |
| CACTTCGA | 0.0443 |
| CAAAGCGG | -0.0361 |
| ACTTAACT | -0.0443 |
| AAAATTGA | 0.123 |

| Sequence | binding signal [E-score] |
| --- | --- |
| CACGTTGC | -0.0192 |
| AACCAGTA | -0.012 |
| AATTGCCC | 0.0735 |
| ACACTGTA | 0.0714 |
| CAAAACTA | 0.0978 |
| ACTTTGTA | -0.0223 |
| AAGATCAT | 0.214 |
| AGAATAAC | 0.136 |
| ATGCTAGA | -0.0343 |
| CAGAGTAA | 0.0048 |
| AGCTGGCG | -0.132 |
| ATGAATTC | 0.0427 |
| ACAATGTC | -0.0634 |
| AGTGTGCC | -0.251 |
| ACGTTGCG | -0.0644 |
| AAAGCCGG | -0.145 |
| ATCGCATG | 0.29 |
| AGGTTCAC | -0.121 |
| AAAAAGGT | -0.156 |
| AAATTGCG | 0.262 |
| AGCGACAT | -0.0052 |
| AAGTATTG | 0.0706 |
| AATTATCC | 0.204 |
| AATACTAT | 0.0517 |
| AGCGTACG | -0.223 |

| Sequence | binding signal [E-score] |
| --- | --- |
| AGGCACGA | -0.134 |
| ATCGTAAT | 0.375 |
| AATGCAAC | 0.0364 |
| ATAATCTG | 0.356 |
| AGACGTAT | 0.0365 |
| ACGCGACT | -0.18 |
| ATCGGACG | -0.0904 |
| CACTTTAG | -0.0666 |
| ATCTGCAG | 0.284 |
| ACGAAGAC | -0.107 |
| ATGCTTAC | -0.0841 |
| CAAACGGA | 0.0467 |
| AATGTGAC | -0.126 |
| ACATCCGA | 0.0402 |
| ACGATGTC | -0.104 |
| AGTGTAAG | 0.000137 |
| ATCTCAGC | 0.22 |
| ATTACTAC | 0.166 |
| ATCCCTGC | 0.0952 |
| AACTTCGA | -0.0409 |
| AAGGACAA | 0.0386 |
| AGGAGAAG | -0.122 |
| CAGAGATC | 0.312 |
| ATGTGCAA | 0.0252 |
| ACAAATCA | 0.262 |

| Sequence | binding signal [E-score] |
| --- | --- |
| AGGATGAC | -0.0664 |
| ACACGGGT | -0.166 |
| ATCCAGCG | 0.0657 |
| AGATACGA | 0.332 |
| AGCCCGTC | -0.184 |
| ACGTTGCC | -0.209 |
| ACACCGCG | -0.14 |
| ATGCATGA | -0.0778 |
| ACCACACC | -0.0584 |
| AAGGCGAA | -0.0188 |
| AGTCGCTG | -0.16 |
| CAGACCGC | -0.152 |
| ATTGTGTC | 0.225 |
| ACTATTTA | -0.0278 |
| ACTATGCT | -0.0712 |
| ATACAGGA | 0.175 |
| AACAGGAT | 0.234 |
| CAAAGTCA | -0.06 |
| AATGAACC | -0.172 |
| ACTGTGGG | -0.172 |
| ACCGCCCC | -0.226 |
| AGACAGTG | -0.0618 |
